Test results as given in PubChem BioAssay AID602310 (National Center for Advancing Translational Sciences (NCATS), 2012).
The whole screen tested about 410,000 compounds, of which about 310 (0.076%) were called active. This list was built around the results that the source calls inconclusive (neither active nor inactive); the mix of calls is not that of the screen. The call rests on the fitted dose curve; in most records, active means well fitted curve in the direction sought with a large enough effect; inconclusive means small, poorly fitted or top-dose-only effect; inactive means flat fitted curve, though single readings scatter. Potencies beside an inconclusive call are fits to weak or partial responses and may not hold up.

Molecular target: DNA dC->dU-editing enzyme APOBEC-3G (Homo sapiens) (UniProt Q9HC16)
Test: qHTS for Inhibitors of Vif-A3G Interactions: qHTS; further: nearly all actives have a fitted effect of over 60% in size;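 on activity, negative = active: hits raise eYFP signal because A3G escapes Vif-driven loss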
Details: HeLa A3G-eYFP + Vif (tagged APOBEC3G with the HIV-1 protein that degrades it), YFP fluorescence, overnight; series mostly up to 46.1 µM; activity, negative = active: at the top concentration
Method in brief: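 Read-out is eYFP fluorescence (Ex 488/Em 500-530) from Vif-expressing HeLa A3G-eYFP cells; more signal means A3G escaped Vif-mediated degradation. Cells plated overnight, compound pinned in, incubated overnight at 37 deg C.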
On the % scale 0 is the no-effect control and ±100 the full control effect; potency means the concentration at half of the fitted maximal effect; tags describe the fitted curve by direction and shape.

Sequence of UniProt Q9HC16 (Q9HC16 whole entry, looked up): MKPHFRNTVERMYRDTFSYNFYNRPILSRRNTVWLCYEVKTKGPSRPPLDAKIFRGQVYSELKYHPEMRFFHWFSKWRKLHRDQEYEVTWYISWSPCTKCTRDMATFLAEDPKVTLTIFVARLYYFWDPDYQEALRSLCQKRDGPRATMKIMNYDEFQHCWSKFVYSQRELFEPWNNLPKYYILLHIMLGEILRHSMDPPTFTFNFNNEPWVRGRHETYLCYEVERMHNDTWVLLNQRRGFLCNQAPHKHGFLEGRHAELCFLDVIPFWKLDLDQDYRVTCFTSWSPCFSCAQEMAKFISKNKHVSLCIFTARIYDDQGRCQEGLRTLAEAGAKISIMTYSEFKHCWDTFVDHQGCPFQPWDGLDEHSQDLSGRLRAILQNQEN

Compound | Potency | activity, negative = active
COc1ccccc1CCC(=O)Nc1ccc2c(c1)c(=O)n(C)n2Cc1ccc(F)cc1 | inconclusive: 3.55 µM [inhibitor, full curve] | –
COc1ccc(C(=O)c2sc3nc(-c4ccccc4)ccc3c2N)cc1OC | inconclusive: 7.08 µM [inhibitor, partial curve, poor fit] | –
CCn1c(-c2nn(C)c(C)c2Cl)n[nH]c1=S | – | inactive: 3.11%
CCOC(=O)C1=C(C)NC2=C(C(=O)OC2)C1c1ccccc1 (configuration not stated) | inconclusive: 3.55 µM [inhibitor, full curve, poor fit] | –
O=Cc1sc(Nc2ccccc2)nc1Cl | inconclusive: 12.6 µM [inhibitor, partial curve, poor fit] | –
COc1ccc(-c2csc3ncnc(N4CCN(c5ccccc5[N+](=O)[O-])CC4)c23)cc1 | – | inactive: -9.27%
O=C1OC2(c3ccccc31)c1ccccc1-c1ccccc12 | inconclusive: 10 µM [inhibitor, partial curve, poor fit] | –
COc1ccc2c(c1)/C(=C\c1cccc(/C=C3/C(=O)Nc4ccc(OC)cc43)n1)C(=O)N2 | inconclusive: 1.12 µM [inhibitor, full curve, poor fit] | –
O=C(Oc1cccccc1=O)c1ccccc1 | inconclusive: 28.2 µM [inhibitor, single point] | –
O=C(CN(C1CCCCC1)S(=O)(=O)c1ccc(F)cc1)NCC1CCCO1 (configuration not stated) | inconclusive: 2 µM [inhibitor, full curve, poor fit] | –
O=C(c1ccc(S(=O)(=O)Cc2ccccc2Cl)c([N+](=O)[O-])c1)N1CCOCC1 | inconclusive: 17.8 µM [inhibitor, single point] | –
C=CCSc1n[nH]c(-c2ccc(OCCC)cc2)n1 | – | inactive: 3.42%
C[C@H]1CCC[C@]2(C)C[C@H]3OC(=O)C(CN4CCCCCC4)[C@H]3C=C12 (some centres not stated) | inconclusive: 31.6 µM [inhibitor, single point] | –
CC1CCCCN1C(=O)COC(=O)/C=C/c1ccc2ccccc2n1 (configuration not stated) | inconclusive: 35.5 µM [inhibitor, single point] | –
CC(=O)Nc1ccc(S(=O)(=O)NCc2nc(-c3cccc(C)c3)no2)cc1 | inconclusive: 11.2 µM [inhibitor, partial curve] | –
COc1cc(/C=C/c2nc3ccccc3c(=O)[nH]2)ccc1O | inconclusive: 11.2 µM [inhibitor, partial curve, poor fit] | –
Cc1ccc(CNC(=O)CCS(=O)(=O)c2ccc3c(c2)CC(C)N3C(=O)C2CC2)cc1 (configuration not stated) | inconclusive: 11.2 µM [inhibitor, partial curve, poor fit] | –
CN(Nc1cccc(Cl)c1)c1cccc(Cl)c1 | inconclusive: 10 µM [inhibitor, partial curve] | –
CCCCn1c(NC(=O)c2ccccc2Cl)c(C#N)c2nc3ccccc3nc21 | inconclusive: 28.2 µM [inhibitor, single point] | –
Cc1cc(C)cc(-n2c(C)cc(/C=N/NC(=O)c3cccc([N+](=O)[O-])c3C)c2C)c1 | inconclusive: 15.8 µM [inhibitor, single point] | –
COc1cc(NC(=O)c2ccccc2)c(OC)cc1NC(=O)CSc1[nH]c(=O)cc(C)c1C#N | inconclusive: 1.78 µM [inhibitor, partial curve, poor fit] | –
CCN(c1cccc(C)c1)S(=O)(=O)c1ccc(-c2cc(C)no2)s1 | inconclusive: 1.58 µM [inhibitor, partial curve, poor fit] | –
COc1ccc(-c2csc(NC(=S)NC(=O)/C=C/c3ccco3)n2)cc1OC | inconclusive: 3.55 µM [inhibitor, full curve] | –

Compound | Potency | activity, negative = active
Cc1cccc(N(C)C(=O)c2cc3cc4ccc(C)cc4nc3o2)c1 | inconclusive: 3.98 µM [inhibitor, full curve] | –
O=[N+]([O-])c1cc(S(=O)(=O)NCCN2CCOCC2)ccc1Sc1nnnn1-c1ccccc1 | – | inactive: -13.8%
Cc1ccc(NC(=O)Cn2c(=O)n(Cc3ccco3)c(=O)c3sc4ccccc4c32)c(C)c1 | – | inactive: 0.427%
CCN(CC)c1ccc(-c2nn3c(-c4cccnc4)nnc3s2)cc1 | inconclusive: 7.08 µM [inhibitor, full curve, poor fit] | –
OCCCNc1nc(-c2ccc(Br)cc2)nnc1-c1ccc(Cl)cc1 | – | inactive: 1.24%
CC(=O)c1cccc(-c2ccnc3c2CC(C(=O)Nc2cccc(N(C)C)c2)O3)c1 (configuration not stated) | inconclusive: 7.08 µM [inhibitor, full curve] | –
CCOC(=O)c1c(NC(=O)c2ccc(S(=O)(=O)N(CC(C)C)CC(C)C)cc2)sc2c1CCN(CC)C2 | inconclusive: 15.8 µM [inhibitor, partial curve, poor fit] | –
COc1cc(OC)c(N(C)S(=O)(=O)c2cccc(C(=O)NC3=NCCS3)c2)cc1Cl | inconclusive: 35.5 µM [inhibitor, single point] | –
CC(C)(C)c1ccc(C(=O)c2c[nH]c(C(=O)O)c2)cc1 | – | inactive: 2.36%
O=C(N/N=C/c1ccc2c(c1)OCO2)c1cccc(NC(=O)c2ccccc2Cl)c1 | inconclusive: 6.31 µM [inhibitor, partial curve] | –
CCOc1ccc2[nH]c3nc(SCC(=O)NC4CCCC4)nnc3c2c1 | inconclusive: 2.51 µM [inhibitor, partial curve, poor fit] | –
CC(=O)Nc1ccc(-c2ccnc3c2CC(C)(C(=O)NCc2ccc(F)c(F)c2)O3)cc1 (configuration not stated) | inconclusive: 3.55 µM [inhibitor, full curve] | –
Cc1cccc(-c2ocnc2C(=O)Nc2ccccc2C(=O)N2CCCC2)c1 | inconclusive: 17.8 µM [inhibitor, single point] | –
COc1ccc(NC(=O)c2cccc3ccccc23)cc1 | active: 11.2 µM | –
c1cc(SC2CCCCC2)cc(-c2nc3cnccn3c2NC2CCCCC2)c1 | inconclusive: 25.1 µM [inhibitor, single point] | –
COc1cc(-c2nc3sccn3c2Nc2cccc(C)c2)ccc1O | inconclusive: 17.8 µM [inhibitor, single point] | –
Cc1coc2cc3oc(=O)c(CC(=O)NCc4ccc(F)cc4)c(C)c3cc12 | inconclusive: 7.08 µM [inhibitor, full curve, poor fit] | –
COc1ccccc1C(=O)N1CCN(c2cccc(Cl)c2)CC1 | inconclusive: 1.12 µM [inhibitor, full curve, poor fit] | –
O=C(C=Cc1ccccc1)CC(c1ccccc1)N1CCOCC1 (configuration not stated) | inconclusive: 11.2 µM [inhibitor, partial curve, poor fit] | –
C[C@]1(O)CC(=O)C=C[C@H]1Nc1ccccc1 | inconclusive: 12.6 µM [inhibitor, partial curve, poor fit] | –
Oc1[nH]c2ccccc2c1N=Nc1ccccn1 | – | inactive: -4.12%
c1ccc(CC[n+]2ccncc2)cc1 | – | inactive: 0.761%
O=C(COC(=O)CSc1cccc2cccc(Cl)c12)Nc1ncc(C(F)(F)F)cc1Cl | – | inactive: 2.1%

Compound | Potency | activity, negative = active
c1ccc(-c2ccc(CNC3CC3)cc2)cc1 | – | inactive: -3.13%
CCOc1ccc(C(C)NC(=S)NCc2ccc(F)cc2)cc1 (configuration not stated) | – | inactive: 4.04%
COc1cc(/C=N/OCC(=O)Nc2ccc(OC(F)F)cc2)ccc1OCc1ccccc1 | inconclusive: 11.2 µM [inhibitor, partial curve] | –
CC(CC(=O)Nc1ccc2c(c1)c(=O)n(C)n2-c1ccccc1F)c1ccccc1 (configuration not stated) | inconclusive: 6.31 µM [inhibitor, partial curve, poor fit] | –
COc1cc(C2c3cc4c(cc3OC(NNC(N)=S)C2C)OCO4)cc(OC)c1OC (configuration not stated) | inconclusive: 0.631 µM [inhibitor, full curve, poor fit] | –
N#CC1=C(S)N(c2ccccc2)C(c2cccs2)NC1=O (configuration not stated) | – | inactive: -3.53%
CN1Cc2sc(NC(=S)NC(=O)c3ccccc3)c(C#N)c2CC1(C)C | inconclusive: 20 µM [inhibitor, single point] | –
O=C(CCl)N(CCc1ccccc1)CCc1ccccc1 | inconclusive: 35.5 µM [inhibitor, partial curve, poor fit] | –
Cc1ccccc1NC(=O)c1cc2c(C)nc3ccccc3c2o1 | – | inactive: -2.14%
CC(C)(C)Nc1nc2cc([N+](=O)[O-])ccc2o1 | – | inactive: 0.868%
Cn1c2c(c(=O)[nH]c1=O)C(c1ccc(O)cc1)C1=C(N2)c2ccccc2C1=O (configuration not stated) | inconclusive: 35.5 µM [inhibitor, single point] | –
CC(C)c1ccc(Nc2nc3ccc(C(=O)c4ccccc4)cc3n3cnnc23)cc1 | inconclusive: 35.5 µM [inhibitor, single point] | –
Cc1nc2c(=O)[nH]c(=S)n(C)c2nc1C | – | inactive: 0.965%
CCOC(=O)c1[nH]c(C)c(C(=O)Nc2ccccc2C)c1C | inconclusive: 2.24 µM [inhibitor, partial curve, poor fit] | –
COc1ccc([N+](=O)[O-])cc1Nc1c2ccccc2nc2ccccc12 | inconclusive: 1.26 µM [inhibitor, partial curve, poor fit] | –
O=C(Nc1nc2c(F)cccc2s1)C1CC1 | – | inactive: -0.446%
O=C(NC1CCCCC1)c1ccccc1NC(=O)C1CC(=O)N(c2ccc(Cl)cc2)C1 (configuration not stated) | – | inactive: 0.617%
COC(CNC(=O)Cc1c(C)nc2c(-c3ccccc3)c(C)nn2c1C)OC | – | inactive: 0.851%
O=C(Nc1cc(Cl)ccc1-n1cncn1)c1ccc([N+](=O)[O-])s1 | inconclusive: 15.8 µM [inhibitor, partial curve, poor fit] | –
CCCCc1ccc(NC(=O)Cn2cnc3c2c(=O)n(C)c(=O)n3C)cc1 | – | inactive: 5.69%
COCCCNC(=S)Nc1cc2oc3ccccc3c2cc1OC | inconclusive: 5.01 µM [inhibitor, partial curve] | –
